The results in this text go back to publication PMC4336329 (PLoS ONE, 2015).

In all, about 310,000 compounds went through this assay and about 2,200 (0.71%) showed an effect of 50% or more. The effect is printed as a negative number. The list shows a part of the results.

Chain of human ether-à-go-go-related gene (hERG) potassium channel (Q12809 whole entry, looked up): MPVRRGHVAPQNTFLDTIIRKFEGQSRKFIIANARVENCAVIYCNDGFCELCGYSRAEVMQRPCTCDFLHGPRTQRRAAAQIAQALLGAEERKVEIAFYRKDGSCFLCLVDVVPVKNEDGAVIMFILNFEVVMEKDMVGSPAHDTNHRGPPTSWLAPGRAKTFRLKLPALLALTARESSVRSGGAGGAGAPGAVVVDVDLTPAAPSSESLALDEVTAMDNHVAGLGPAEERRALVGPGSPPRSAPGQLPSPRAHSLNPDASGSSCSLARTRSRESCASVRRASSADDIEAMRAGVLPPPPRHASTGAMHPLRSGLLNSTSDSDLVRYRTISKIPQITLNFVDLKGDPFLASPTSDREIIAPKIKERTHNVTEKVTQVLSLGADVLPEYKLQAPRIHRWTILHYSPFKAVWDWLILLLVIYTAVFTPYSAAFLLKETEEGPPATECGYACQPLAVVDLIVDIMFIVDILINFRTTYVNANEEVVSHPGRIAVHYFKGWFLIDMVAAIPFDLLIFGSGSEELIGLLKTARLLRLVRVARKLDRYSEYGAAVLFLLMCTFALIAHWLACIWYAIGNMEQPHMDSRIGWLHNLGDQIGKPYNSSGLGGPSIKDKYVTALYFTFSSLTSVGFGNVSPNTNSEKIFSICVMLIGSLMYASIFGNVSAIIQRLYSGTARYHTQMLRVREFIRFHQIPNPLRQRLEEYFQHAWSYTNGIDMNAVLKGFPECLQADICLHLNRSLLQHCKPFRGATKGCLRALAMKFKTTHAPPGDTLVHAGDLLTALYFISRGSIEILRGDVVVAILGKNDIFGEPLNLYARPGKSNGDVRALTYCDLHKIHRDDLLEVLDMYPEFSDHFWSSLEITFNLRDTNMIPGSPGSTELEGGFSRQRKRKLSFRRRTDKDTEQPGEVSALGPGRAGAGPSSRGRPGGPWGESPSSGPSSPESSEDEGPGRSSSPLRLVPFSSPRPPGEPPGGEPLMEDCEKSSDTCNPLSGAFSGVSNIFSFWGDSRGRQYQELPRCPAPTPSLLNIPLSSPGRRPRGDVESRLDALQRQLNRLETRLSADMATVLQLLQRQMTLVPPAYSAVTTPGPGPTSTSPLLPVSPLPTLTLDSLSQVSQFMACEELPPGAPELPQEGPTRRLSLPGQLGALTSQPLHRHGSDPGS

This assay concerns the target human ether-à-go-go-related gene (hERG) potassium channel (human, UniProt Q12809). Kind of assay: primary screen, population patch clamp on CHO cells stably expressing hERG.
`Cc1cccc(N2CCN(C(c3ccccc3)c3nnnn3C(C)(C)C)CC2)c1C` (stereo not drawn): the “hERG current change (%, negative = inhibition) at 1uM” value stood at 15.1%.
Next, `C=CCc1ccc(OC)c(OC)c1`: 15.8%; `CCOC(=O)C1CCCN(C(=O)c2cc(Cl)ccc2Cl)C1` (stereo not drawn): 15.3%; `Cc1oc2ncnc(N)c2c1C`: 5.54%.
For `CCn1nc(C(=O)Nc2ccccc2N2CCCC2)c2ccccc2c1=O`, the “hERG current change (%, negative = inhibition) at 1uM” value is recorded as 5.21%.
Next, `N#Cc1ccc(N2C(=O)[C@@H]3C(C(=O)c4cnccn4)=NN[C@@H]3C2=O)cc1`: 12.8%; `CCC(Oc1ccccc1OC)C(=O)Nc1ccc2c(c1)OCO2` (stereo not drawn): 9.36%; `CCOc1ccc(NC(=O)c2ccc(C#CC(C)(C)O)cc2)cc1`: 9.96%.
Next, `Cc1ccc(/C=N/n2c(-c3ccncc3)n[nH]c2=S)s1`: 9.72%; `COCCCNc1nc2c(c(=O)[nH]c(=O)n2C)n1CC(O)COc1cccc(C)c1` (stereo not drawn): 12.1%.
In the case of `NNP(=O)(CC(=O)c1ccccc1)c1ccccc1` (stereo not drawn), the “hERG current change (%, negative = inhibition) at 1uM” value is given as 18.2%.
Next, `O=C(CN1C(=O)NC(c2ccccc2)(c2ccccc2)C1=O)NCC(=O)Nc1ccc(F)cc1`: 7.33%; `O=C1N=C(N2CCc3ccccc3C2)S/C1=C\c1ccc(O)cc1`: 10.3%; `Cc1c(NC(=O)c2ccc3nsnc3c2)cccc1[N+](=O)[O-]`: 14.9%.
Next, `COc1ccc(CN2CCOCC2)cc1OC`: 5.79%.
Next, `COC(=O)Nc1ccc(S(=O)(=O)NNC(=O)c2c(O)c3ccccc3n(C)c2=O)cc1`: 35.7%; `O=C(COC(=O)CCc1nc2ccccc2c(=O)[nH]1)Nc1ccc(Cl)cn1`: 8.63%.
Regarding `CCS(=O)(=O)NCC(c1cccnc1)N1CCN(c2ccccc2F)CC1` (stereo not drawn), the “hERG current change (%, negative = inhibition) at 1uM” value turned out to be 14.4%.
For the compound `CC(=O)N1CCc2cc(S(=O)(=O)NCCC(=O)NCCc3ccc(Cl)cc3)ccc21`, the “hERG current change (%, negative = inhibition) at 1uM” value is 10.7%.
For `CC(=O)Nc1sc(C)c(C)c1C(=O)OCC(=O)Nc1cc(S(C)(=O)=O)ccc1Cl` the value was 8.66%; for `CC1CCCC(NC(=O)CCNC(=O)c2ccc(Br)cc2)C1C` (stereo not drawn), 14.1%.
For `CCOC(=O)c1c(NC(=O)C(=O)N/N=C/c2ccc(O)c(OC)c2)sc2c1CCCCC2` the value was 3.13%.
Turning to `Cc1ccc(/C=N/NC(=O)C(C)Oc2ccccc2[N+](=O)[O-])s1` (stereo not drawn), the “hERG current change (%, negative = inhibition) at 1uM” value amounted to 6.63%.
As to `O=C(Nc1ccc(-c2noc(-c3cccs3)n2)cc1)c1cccnc1`, the “hERG current change (%, negative = inhibition) at 1uM” value is given as 7%.
For `O=C(/C=C/c1ccccc1Cl)NCCN1CCOCC1` the value was 1.11%; for `CC(=O)Oc1ccc(N2C(=O)[C@@H]3[C@H](C2=O)[C@H]2c4ccccc4C=NN2[C@@H]3C(C)=O)cc1`, 0.504%; for `CNC(=O)c1c(NC(=O)CCS(=O)(=O)c2ccc(C)cc2)sc2c1CCN(C(=O)OC)C2`, 1.06%.
For `Cc1cccc(C(=O)N/N=C/c2cc(Br)c(Br)o2)c1`, the “hERG current change (%, negative = inhibition) at 1uM” value is on record as 1.03%.
For `COCCN(CCOC)c1nc(N)c2c(N)nc3c(c2c1C#N)CC(=O)N3Cc1ccc(Cl)cc1` the value was -14%; for `Cc1ccc(S(=O)(=O)[N-]c2nc3ccccc3nc2-n2cc[n+](Cc3ccccc3)c2)cc1`, 8.75%.
Next, `Cc1ccc(C)c(S(=O)(=O)N(C)Cc2cccs2)c1`: 1.44%; `COc1cc(C(=O)N/N=C/c2cc([N+](=O)[O-])cs2)cc(OC)c1OC`: 0.725%; `Cn1cc(C(=O)N/N=C/C(Br)=C\c2ccccc2)ccc1=O`: 6.73%.
Consider `NC(=O)c1ccsc1NC(=O)COC(=O)/C=C/c1ccccc1`, for which the “hERG current change (%, negative = inhibition) at 1uM” value is 2.34%.
On to `Cc1cc(C(=O)NNC(=S)NCc2ccccc2)cs1`, for which the “hERG current change (%, negative = inhibition) at 1uM” value worked out at 13.7%.
Next, `CCOc1cc(C2/C(=C(/O)c3ccc(S(=O)(=O)N4CCCCC4)cc3)C(=O)C(=O)N2CCOC)ccc1O` (stereo not drawn): 12.1%; `O=C(NCCCN1CCOCC1)c1cc2c(s1)CCC2`: 13.3%.
Next, `CC(NC(=O)c1ccco1)C12CC3CC(CC(C3)C1)C2` (stereo not drawn): 7.25%; `CCc1noc(C)c1C(=O)OCC(=O)Nc1c(F)cccc1F`: 11.1%; `Cc1ccc(OCCC(=O)OCC(=O)Nc2ccc(C)cc2Cl)cc1`: 2.07%.
Next, `COc1ccc(CCN=C(N)NS(=O)(=O)c2ccc(F)cc2)cc1`: 14.6%; `Cc1c(C(=O)Nc2ccc(F)cc2)oc2ccc(S(=O)(=O)N3CCCC3)cc12`: 10.1%; `COc1ccc(N=C(C)c2c(O)n(C)c(=O)n(C)c2=O)c(OC)c1`: 12.8%.
In the case of `COc1ccc(Cc2nnc(Nc3c(C)cccc3C)o2)cc1OC`, the “hERG current change (%, negative = inhibition) at 1uM” value is reported as 8.63%.
Next, `CCc1nc(SC)[nH]c(=O)c1C`: 9.67%; `c1csc(-c2nnc(COc3ncnc4sccc34)o2)c1`: -0.113%; `CC1CCN(C(=O)CSc2nnc(Cn3c(=O)sc4ccccc43)n2C)CC1`: -0.706%.
With `Cc1cc(C)c(S(=O)(=O)Nc2ccc(N3CCOCC3)cc2)c(C)c1`, the “hERG current change (%, negative = inhibition) at 1uM” value stood at 13.5%.
`Cc1cc(=O)n2nc(N3CCCC(C(=O)N4CCc5ccccc54)C3)sc2n1` (stereo not drawn): the “hERG current change (%, negative = inhibition) at 1uM” value was -13.3%.
For `Clc1ccccc1C1=Nn2c(nnc2-c2ccncc2)SC1` the value was 3.57%; for `COC(=O)c1cccc(Cn2c(Cl)c(/C=N/NC(=O)c3ccco3)sc2=O)c1`, 22.6%.
As to `NC(=O)c1ccsc1NC(=O)COC(=O)C1CCCN1C(=O)c1cccs1` (stereo not drawn), the “hERG current change (%, negative = inhibition) at 1uM” value is on record as -33.7%.
For `CCn1cc(Br)c(C(=O)Nc2ccc(F)cc2F)n1` the value was 5.46%; for `Cc1ccc(SCC(=O)NCc2cccnc2)cc1`, 1.62%.
Next, `Brc1cccc(OCCSc2ncccn2)c1`: 15.8%.
In the case of `COc1ccc(C(=O)Nc2nc(N3C(=O)c4ccccc4C3=O)n(-c3ccccc3)n2)cc1`, the “hERG current change (%, negative = inhibition) at 1uM” value worked out at 3.14%.
`Cc1c(C(=O)NCCCN2CCOCC2)sc2nc(-c3ccccc3)cn12`: the “hERG current change (%, negative = inhibition) at 1uM” value is listed as -13.8%.
